Laboratory results reported in PubChem BioAssay AID488969 (Vanderbilt High Throughput Screening Facility, 2010).
The full ranking holds about 110,000 compounds; the median of “z-score” is about -0.1, and the highest 2% start at about 2. The list shows a part of the results. Activity calls are given as the source filed them.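 Rule for the calls: active = z-score in the third read window above 3 or below -3; inactive = the rest.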

Each compound was assayed against Metabotropic glutamate receptor 8 (Rattus norvegicus) (UniProt P70579) (assay: rat mGluR8 modulators via GIRK flux, primary screen, cell-based, thallium flux, HTS (AID 488969)). Settings: HEK293 rat mGluR8, GIRK (G protein-gated inwardly rectifying potassium channel) thallium flux, FluoZin2; at 10 µM; stronger effect = higher value; submaximal glutamate (EC20) added with thallium.
UniProt P70579, sequence (P70579 whole entry, looked up): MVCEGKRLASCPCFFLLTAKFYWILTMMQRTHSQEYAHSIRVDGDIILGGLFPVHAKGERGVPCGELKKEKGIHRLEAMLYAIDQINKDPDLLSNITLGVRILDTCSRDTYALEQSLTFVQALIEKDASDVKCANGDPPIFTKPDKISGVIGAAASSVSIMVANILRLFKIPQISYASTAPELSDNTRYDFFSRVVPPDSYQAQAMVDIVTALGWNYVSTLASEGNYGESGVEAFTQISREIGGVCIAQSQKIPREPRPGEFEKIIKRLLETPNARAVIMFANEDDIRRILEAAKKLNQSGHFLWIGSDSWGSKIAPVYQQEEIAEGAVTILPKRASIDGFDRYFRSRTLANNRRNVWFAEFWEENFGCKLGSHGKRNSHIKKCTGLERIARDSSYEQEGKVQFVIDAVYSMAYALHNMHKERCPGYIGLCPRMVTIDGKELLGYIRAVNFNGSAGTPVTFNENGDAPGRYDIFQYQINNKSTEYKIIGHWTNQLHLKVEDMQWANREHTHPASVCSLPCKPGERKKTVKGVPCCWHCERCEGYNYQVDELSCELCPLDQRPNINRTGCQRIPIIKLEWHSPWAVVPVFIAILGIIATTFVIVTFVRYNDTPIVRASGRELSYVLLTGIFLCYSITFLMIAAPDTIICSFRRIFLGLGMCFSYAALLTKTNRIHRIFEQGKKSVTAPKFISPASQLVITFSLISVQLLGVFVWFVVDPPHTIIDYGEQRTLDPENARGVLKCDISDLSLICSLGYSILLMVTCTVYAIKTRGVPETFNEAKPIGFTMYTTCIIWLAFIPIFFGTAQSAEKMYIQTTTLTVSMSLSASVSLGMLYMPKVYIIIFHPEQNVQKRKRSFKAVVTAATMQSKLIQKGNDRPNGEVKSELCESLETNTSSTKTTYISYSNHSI
Work on `CC(C)N(C(=O)NC(=O)Nc1ccccn1)S(C)(=O)=O` yielded a z-score of 0.0224.
For `COc1ccccc1-c1nnc(SCc2nc3ccccc3[nH]2)n1C`, the z-score was -0.212.
Compound `C/C=C/c1ccc(OCCCCOc2c(OC)cccc2OC)c(OC)c1` has a z-score of -0.379.
`CC1=[N+]([O-])C(C)(C)C(C)N(O)C1=O` (stereo not given) gave a z-score of 0.305.
`O=[N+]([O-])c1cccc(/C=C/c2nc3ccc([N+](=O)[O-])cc3[nH]2)c1` gave a z-score of -0.342.
Work on `CNC(=O)C(=O)NCCc1ccc(Cl)cc1` yielded a z-score of -0.417.
`C=CCn1c(COc2ccccc2)nnc1SCC(=O)N/N=C/c1ccc(C)cc1` gave a z-score of -0.362.
`c1ccc(-c2cc(-c3nn4c(-c5ccco5)nnc4s3)c3ccccc3n2)cc1` gave a z-score of -0.873.
`CCOc1ccc(N(CC(=O)NCc2ccc(F)cc2)S(=O)(=O)c2c(C)noc2C)cc1` was tested, and the z-score was -0.34.
`Cc1c(Cl)cnc(NC(=O)CSc2nnc3ccccn23)c1Cl` showed a z-score of 0.0524.
Work on `CCOc1ccc2nc(N/C(N)=N/C(=S)Nc3ccc(C)c(C)c3)nc(C)c2c1` yielded a z-score of -0.22.
For `CCCCOCCCNC(=O)/C=C/c1ccccc1Cl`, the z-score was -0.149.
For `COc1ccc(/C(O)=C2/C(=O)C(=O)N(Cc3cccnc3)C2c2ccco2)cc1OC` (stereo not given), the z-score was -0.0878.
`COc1ccc(/C=N/NC(=O)C(C)n2nnc3ccccc32)cc1OC` (stereo not given) showed a z-score of -0.379.
`CCOC(=O)c1[nH]c(C)c(C(=O)N(C)C)c1C` was tested, and the z-score was 0.00259.
For `COC(=O)C1=C(C)NC(=O)/C1=C\c1cc(C)n(-c2cc(C)cc(C)c2)c1C`, the z-score was 0.531.
`O=C1c2ccsc2SCCN1Cc1c(Cl)cccc1Cl` gave a z-score of -0.329.
`COC(=O)c1cc(C#N)c(Oc2ccccc2)nc1C` was tested, and the z-score was 0.107.
In the case of `NC(=S)NNC(=O)c1ccccc1`, the z-score is reported as -0.143.
`CN(CC(=O)NC1CCCCCCC1)S(=O)(=O)c1cccc2cccnc12` showed a z-score of -0.0963.
`Cc1cc(=O)[nH]c(N/N=C/c2ccccn2)n1` showed a z-score of 0.0808.
In the case of `COc1ccc(-c2nc(C#N)c(N3CCc4ccccc4C3)o2)cc1OC`, the z-score is reported as -0.136.
With `O=C(CSc1nc2ccccc2[nH]1)Nc1ccc(F)cc1` the z-score was -0.135.
`O=C(NCC1CCCO1)Nc1cccc(Cl)c1` (stereo not given) gave a z-score of -0.0292.
`CC(Sc1nncn1C)C(=O)Nc1ccccc1-c1ccccc1` (stereo not given) gave a z-score of -0.378.
In the case of `COC(C(=O)Nc1ccc(F)cc1F)c1ccccc1` (stereo not given), the z-score is reported as 0.152.
Work on `S=C(NCc1ccccc1)NCc1cccc(CNC(=S)NCc2ccccc2)c1` yielded a z-score of 2.84.
With `S=C(Nc1ccc(Cl)cc1Cl)Nc1ccccc1Oc1ccccc1` the z-score was active: 4.54.
`CC1CC(C)CN(CCOCCSc2ccccc2)C1` (stereo not given) was tested, and the z-score was 0.729.
For `COc1cc(OC)nc(Oc2ccccc2C(=O)Oc2ccc(C)cc2)n1`, the z-score was -0.28.
`Cc1ccc(/C=N/NC(=O)c2c[nH]c3ccccc23)o1` showed a z-score of -0.943.
Compound `COC1(OC)N=C(N)C2(C#N)C(c3cccc(Oc4ccccc4)c3)C12C#N` (stereo not given) has a z-score of 0.201.
`Cc1cc(Nc2ccccc2)c2c([N+](=O)[O-])ccc(C)c2n1` was tested, and the z-score was -0.521.
In the case of `Cc1ccccc1-c1nc(CN2CCC(C(=O)NCCCN3CCCC3)CC2)c(C)o1`, the z-score is reported as 2.76.
`O=C(COC(=O)CNC(=O)c1ccc(Cl)cc1)Nc1ccc2c(c1)OCCO2` was tested, and the z-score was -0.149.
For `COCc1nnc(NC(=O)CSCc2ccccc2)s1`, the z-score was 1.07.
For `COC(=O)c1cc(NS(=O)(=O)c2ccc(N3CCCCCC3)c([N+](=O)[O-])c2)cc(C(=O)OC)c1`, the z-score was 0.0291.
Work on `COc1ccc(OCC(=O)NC(=S)Nc2ccc(N3CCOCC3)c(Cl)c2)cc1` yielded a z-score of 2.19.
For `FC(F)(F)c1cc(-c2ccccc2)nc(N2CCCCCC2)n1`, the z-score was 0.105.
For `CCOC(=O)N1CCN(C(=O)CN(Cc2ccc(Cl)cc2)S(=O)(=O)c2ccccc2)CC1`, the z-score was -0.438.
In the case of `O=C(NCC1CCCO1)C1CCN(c2ccc(S(=O)(=O)N3CCCC3)cc2)CC1` (stereo not given), the z-score is reported as 0.205.
For `CCC(C)NC(=O)CSC1=Nc2ccccc2C2=NC(c3ccccc3)C(=O)N12` (stereo not given), the z-score was -0.314.
For `CCCc1[nH]nc2c1C(/C(C)=C/c1ccccc1)C(C#N)=C(N)O2` (stereo not given), the z-score was -0.344.
For `O=C(O)c1ccccc1S(=O)(=O)NCC(O)COc1ccc(Br)cc1` (stereo not given), the z-score was -0.391.
Work on `O=C(CCn1c(=O)sc2ccccc21)NCc1cccs1` yielded a z-score of 0.558.
For `O=C(CSc1n[nH]c(-c2ccco2)n1)Nc1sc2c(c1C(=O)Nc1ccccc1)CCCC2`, the z-score was -0.294.
Work on `CCCn1nnnc1SCC(=O)Nc1cccc(NC(=O)c2ccco2)c1` yielded a z-score of -0.0883.
With `O=C(OCc1nnc(-c2ccccc2)o1)c1cc(S(=O)(=O)N2CCOCC2)c(Cl)cc1Cl` the z-score was -1.28.
Work on `CCn1ncc(CN2CCN(C(=O)Nc3ccccc3C(=O)OC)CC2)c1C` yielded a z-score of -0.437.
`COC(=O)c1c(C#N)c(N)nc2c1CCC2` gave a z-score of -0.0826.
`Cc1ccccc1N(CC(=O)N/N=C/c1ccc(N(C)C)cc1)C(=O)c1ccccc1` gave a z-score of -0.39.
`Nc1ccc(OCc2ccccc2)cc1` gave a z-score of -0.0146.
`CCCC(C(=O)Nc1nccs1)c1ccccc1` (stereo not given) showed a z-score of -0.281.
For `CC(C)(C)c1ccc(OCC(O)CS(=O)(=O)c2ccccn2)cc1` (stereo not given), the z-score was -0.438.
Compound `CC1CCCCN1CCCNC(=O)c1ccc2c(=O)n(CCc3ccccc3)c(=O)[nH]c2c1` (stereo not given) has a z-score of 2.93.
In the case of `CCOC(=O)c1c(/N=C/N(C)C)sc2c1CCC2`, the z-score is reported as -0.178.
With `Cc1ccc(C(C(=O)NC(C)(C)C)N(Cc2ccco2)C(=O)Cn2nnc(-c3cccs3)n2)cc1` (stereo not given) the z-score was -0.532.
Work on `CC(C)c1ccc(NC(=O)COc2nncc3ccccc23)cc1` yielded a z-score of -0.102.
Work on `O=C1CC(C(=O)Nc2ccc(C(=O)O)cc2)C(c2ccccc2)O1` (stereo not given) yielded a z-score of -0.202.
Work on `CCOC(=O)c1c(NC(=O)CC2SC(=NC)N(C)C2=O)sc(C)c1C` (stereo not given) yielded a z-score of -0.326.
`Cc1ccc2nc(NC(=O)COC(=O)c3ccco3)sc2c1` gave a z-score of 0.445.
`O=C(CN1C(=O)S/C(=C\c2ccc(Cl)cc2)C1=O)NNC(=O)c1ccccc1O` gave a z-score of -0.204.
`O=C(COc1ccccc1F)NC1CC1` gave a z-score of 0.105.
For `CC1CN(c2nc3c(c(=O)n(Cc4ccc(Cl)cc4)c(=O)n3C)n2C)CC(C)O1` (stereo not given), the z-score was -0.458.
`O=C(CCC(=O)OCC(=O)c1ccc(F)cc1)NC1CCCCC1` was tested, and the z-score was -0.239.
`COc1ccc(CNC(=O)c2ccc(S(=O)(=O)N3CCCC3)cc2)cc1OC` showed a z-score of 0.432.
With `O=C(O)Cn1cnc2ccccc2c1=O` the z-score was -0.107.
`O=C(O)CCc1ccc(-c2ccccc2)n1NC(=O)c1sc2ccccc2c1Cl` was tested, and the z-score was -0.0719.
`CN(C)S(=O)(=O)c1cccc(NC(=O)c2ccc(OC(F)(F)F)cc2)c1` showed a z-score of -0.329.
For `CCOc1ccccc1NC(=S)N1C2CCC1CC(NC(=O)NC13CC4CC(CC(C4)C1)C3)C2` (stereo not given), the z-score was -0.0523.
In the case of `CCOC(=O)CC(=O)CSc1nc2sc(C)cc2c(=O)n1Cc1ccco1`, the z-score is reported as 0.0235.
Compound `COc1ccc(CN(C)CCc2ccccn2)cc1OC` has a z-score of -0.0672.
With `O=C1CS/C(=N\C(=O)N2c3ccccc3Sc3ccccc32)N1` the z-score was active: 7.66.
In the case of `O=C(CNC(=O)c1ccccc1Cl)Nc1ccc(F)cc1`, the z-score is reported as 0.156.
For `COc1ccc(NC(=O)C2C3C=CC(C3)C2C(=O)NCc2ccccn2)c(OC)c1` (stereo not given), the z-score was -0.404.
`COc1ccccc1Nc1nc2nonc2nc1N1CCCCC1C` (stereo not given) showed a z-score of -0.202.
Compound `O=C(NC1CCCCC1NC(=O)c1ccco1)c1ccco1` (stereo not given) has a z-score of 0.265.
`NC(=O)C1(N2CCCCC2)CCN(CC(=O)Nc2ccccc2-c2ccccc2)CC1` gave a z-score of -0.162.
Compound `Cc1sc2nc(CN3CCOCC3)[nH]c(=O)c2c1-c1ccccc1` has a z-score of -0.112.
`COc1ccccc1-n1cnc2sc(-c3ccccc3)cc2c1=O` showed a z-score of -0.0702.
Compound `CS(=O)(=O)N(CC(=O)NCc1ccccn1)c1ccc2c(c1)OCCO2` has a z-score of 0.763.
With `CCCC(=O)N1CCN(S(=O)(=O)c2cc(Cl)ccc2OC)CC1` the z-score was -0.187.
`Cc1ccc(C(=O)N/C(=C\c2cccc([N+](=O)[O-])c2)C(=O)NCc2ccncc2)cc1` showed a z-score of -0.178.
`CCc1nc2sc3c(c2c(=O)n1N)CCC3` gave a z-score of 1.94.
Work on `O=[N+]([O-])c1ccc(S(=O)(=O)N2CCN(Cc3c[nH]c4ccccc34)CC2)cc1` yielded a z-score of 0.0733.
`CCOC(=O)Cn1c(=NC(=O)CN2C(=O)CCC2=O)sc2cc(S(N)(=O)=O)ccc21` gave a z-score of -0.111.
Compound `CCOC(=O)c1c(NC(=O)c2ccoc2C)sc2c1CCC2` has a z-score of -0.429.
In the case of `CC(C)NC(=O)C1CCN(Cc2cnn(-c3ccccc3)c2-n2cccc2)CC1`, the z-score is reported as -0.777.
Work on `Cc1cc2ncn(S(=O)(=O)N3CCOCC3)c2cc1C` yielded a z-score of -0.099.
Compound `O=C(/C=C/c1cccc(C(F)(F)F)c1)Nc1cccc(C(F)(F)F)c1` has a z-score of -0.246.
In the case of `CCSc1nc2ccc(OC)cc2cc1C#N`, the z-score is reported as -0.381.
With `O=C(OCCN1C(=O)c2ccccc2C1=O)c1cc(S(=O)(=O)N2CCOCC2)ccc1F` the z-score was -0.0479.
With `CCCC(=O)NNC(=O)CCC(=O)NCc1ccccc1` the z-score was -0.151.
`CC1(C)CC(=O)c2cc(OCC(=O)NCCCN3CCN(c4ccc(F)cc4)CC3)ccc2O1` was tested, and the z-score was 0.0517.
`COc1cc(C2C(C(C)=O)=C(O)C(=O)N2CCc2ccc(OC)c(OC)c2)ccc1O` (stereo not given) gave a z-score of 0.323.
With `CC(OC(=O)c1ccc2c(=O)n3c(nc2c1)CCCCC3)C(=O)Nc1ccc(Cl)cn1` (stereo not given) the z-score was -0.541.
`CCNC(=O)c1nc[nH]c1C(=O)NCC` was tested, and the z-score was -0.0678.
Work on `O=C(NCCCn1ccnc1)/C(=C/c1ccco1)NC(=O)c1ccccc1` yielded a z-score of 0.0563.
With `Cc1[nH]c2ccc3c(ncn3CCC#N)c2c1C` the z-score was -0.0538.
`CCNc1nc(NC(C)C)nc(NS(=O)(=O)c2ccc(N)cc2)n1` was tested, and the z-score was 0.299.
For `CC(C)(C)c1ccc(CN(Cc2ccco2)Cc2nnnn2C2CCCC2)cc1`, the z-score was -0.482.
Compound `CC(NC(=O)C1CCCN(S(=O)(=O)c2cnc[nH]2)C1)c1ccccc1` (stereo not given) has a z-score of -0.224.
For `O=C(Cc1cc(=O)[nH][nH]1)N/N=C/c1ccccc1[N+](=O)[O-]`, the z-score was -0.295.
`Clc1ccc(OCc2nn3c(C4CCCCC4)nnc3s2)cc1` was tested, and the z-score was -0.121.
For `CCOC(=O)N1CCC(NC(=O)C2CCN(S(=O)(=O)N3CCC(C)CC3)CC2)CC1`, the z-score was 0.687.
`Cc1cccc(NC(=O)C2CCCN2C(=O)Oc2ccccc2)c1C` (stereo not given) was tested, and the z-score was 0.178.
Compound `CCN(CC)CCCNc1oc(-c2ccc(OC)c(OC)c2)nc1C#N` has a z-score of -0.222.
With `O=C1NC(=O)[C@@H]2C3c4ccccc4C=CN3[C@H](C(=O)c3cccs3)[C@H]12` (stereo not given in full) the z-score was -0.687.
`COc1ccc2ccccc2c1/C=N/NC(=O)c1sc(N)c(C#N)c1C` showed a z-score of -0.625.
Compound `CC(c1ccccc1F)n1cc(C(=O)NCCc2ccco2)nn1` (stereo not given) has a z-score of -0.606.
